This note sets out measurements from PubChem BioAssay (NCI).

The subject of this test is NCI-H322M lung. Kind of test: inhibition of tumour cell growth, NCI panel, 48 h.

Each structure is given as a SMILES string.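 Dose response: 5 concentrations. Exposure: 48 h. Format: 96-well plates. Endpoint: linear interpolation; highest concentration if not reached. GI50 = concentration required for 50% inhibition of growth. TGI marks complete inhibition of growth.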

With `Cc1ccc(C2CC(c3ccc(NC(=O)Nc4ccccc4)cc3)=NN2c2ccc(S(C)(=O)=O)cc2)cc1` (stereo not drawn), the GI50 was 3.8 µM and the TGI amounted to 14.7 µM.
In the case of `O=C(Nc1ccc(Cl)c(C(F)(F)F)c1)N1CCN(c2cc(-c3cn(-c4ccccc4)nc3-c3cccc(O)c3)ccn2)CC1`, the GI50 is 5.86 µM and the TGI is more than 22 µM.
On to `CO[C@@H]1CSSC1Cn1nc(-c2ccc(Oc3ccccc3)cc2)c2c(N)ncnc21` (stereo partly drawn), for which the GI50 is 63.8 µM and the TGI is more than 100 µM.
The like results for `CN(CCSSCCN1CCOCC1)C(=O)Oc1cc2c(c3ccccc13)[C@H](CCl)CN2C(=O)c1cc2cc(OCCCN3CCC3)ccc2[nH]1` were, in that order, 0.00806 µM and 0.0762 µM.
